From publication PMC4081100 come the findings set out here.

Only a part is listed here, and it is no random draw. For some of these results: At the low end of the ranking the order means little. The list shows a part of the results. For some of these results: The exact form of the protein is not confirmed.

Experiment in all cases: universal protein binding microarray (PBM)
What all share (conditions): transcription factors of Arabidopsis thaliana; high values mean tight binding; most listed sequences are background and not binding sites; double strand, one strand shown

One test concerns the target T1, GST-ANAC092(1-176) (UniProt Q9FKA0).
T1 sequence: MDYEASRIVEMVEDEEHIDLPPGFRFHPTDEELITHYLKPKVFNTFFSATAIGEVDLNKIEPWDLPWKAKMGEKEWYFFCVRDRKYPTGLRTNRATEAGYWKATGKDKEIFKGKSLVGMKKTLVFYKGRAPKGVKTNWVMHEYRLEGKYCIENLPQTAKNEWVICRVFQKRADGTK

The next test deals with GST-NTL6(1-168) (UniProt Q9SCK6).
Chain of UniProt Q9SCK6 (Q9SCK6 1-168): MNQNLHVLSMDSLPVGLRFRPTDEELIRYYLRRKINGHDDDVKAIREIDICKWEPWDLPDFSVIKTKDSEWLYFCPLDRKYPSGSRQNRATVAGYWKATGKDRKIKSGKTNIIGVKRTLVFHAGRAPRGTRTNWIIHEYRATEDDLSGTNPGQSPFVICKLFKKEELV
The next test deals with T2, GST-ANAC019 NAC domain (UniProt Q9C932).
T2 sequence: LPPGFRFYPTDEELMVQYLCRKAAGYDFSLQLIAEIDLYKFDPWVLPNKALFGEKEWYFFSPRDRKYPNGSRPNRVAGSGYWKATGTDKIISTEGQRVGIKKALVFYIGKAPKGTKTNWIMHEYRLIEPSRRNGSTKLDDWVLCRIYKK

Another test concerns the target T3, GST-ANAC055(1-171) (UniProt Q9LDY8).
T3 sequence: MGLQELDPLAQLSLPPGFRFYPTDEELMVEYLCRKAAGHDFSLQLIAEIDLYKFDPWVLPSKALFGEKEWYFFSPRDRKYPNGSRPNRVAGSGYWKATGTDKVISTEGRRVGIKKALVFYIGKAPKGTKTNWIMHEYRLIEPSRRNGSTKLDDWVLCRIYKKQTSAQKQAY

The next test has as its target T4, GST-ATAF1 NAC domain (UniProt Q39013).
T4 sequence: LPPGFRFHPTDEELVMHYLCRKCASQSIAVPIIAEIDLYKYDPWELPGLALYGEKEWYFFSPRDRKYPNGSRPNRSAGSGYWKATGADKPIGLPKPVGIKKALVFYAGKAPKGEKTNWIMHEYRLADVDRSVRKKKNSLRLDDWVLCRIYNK

The target of test [1] is T5, GST-ANAC092(1-285) full length (UniProt Q9FKA0).
T5 sequence: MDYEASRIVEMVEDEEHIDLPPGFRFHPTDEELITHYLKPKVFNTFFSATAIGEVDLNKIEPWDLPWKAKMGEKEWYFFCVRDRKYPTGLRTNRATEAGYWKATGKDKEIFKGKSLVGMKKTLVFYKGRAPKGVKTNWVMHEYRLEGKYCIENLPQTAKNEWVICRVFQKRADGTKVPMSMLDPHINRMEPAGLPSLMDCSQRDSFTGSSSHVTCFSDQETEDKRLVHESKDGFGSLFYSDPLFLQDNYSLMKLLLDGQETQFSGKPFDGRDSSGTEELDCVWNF

Another test concerns the target T6, GST-NAP(1-166) (UniProt O49255).
T6 sequence: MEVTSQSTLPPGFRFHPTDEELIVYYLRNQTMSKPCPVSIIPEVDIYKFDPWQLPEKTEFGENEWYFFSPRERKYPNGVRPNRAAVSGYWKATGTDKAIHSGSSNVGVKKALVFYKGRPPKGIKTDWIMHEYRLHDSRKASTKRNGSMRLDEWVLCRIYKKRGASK

The next test addresses T7, GST-NST2(1-184) (UniProt Q9M274).
T7 sequence: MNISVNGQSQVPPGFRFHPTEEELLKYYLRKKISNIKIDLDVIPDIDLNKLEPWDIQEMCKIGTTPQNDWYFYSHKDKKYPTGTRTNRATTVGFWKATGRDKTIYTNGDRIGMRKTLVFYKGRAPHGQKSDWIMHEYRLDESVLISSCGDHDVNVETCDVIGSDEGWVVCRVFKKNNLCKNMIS

A further test deals with T8, GST-NTL8 NAC domain (UniProt Q9XIN7).
T8 sequence: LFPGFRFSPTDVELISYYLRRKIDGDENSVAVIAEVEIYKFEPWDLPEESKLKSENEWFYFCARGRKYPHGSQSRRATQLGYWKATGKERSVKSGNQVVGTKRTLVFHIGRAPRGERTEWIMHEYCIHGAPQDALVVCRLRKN

For another test, the target named is T9, GST-SND1(1-203) (UniProt Q9LPI7).
T9 sequence: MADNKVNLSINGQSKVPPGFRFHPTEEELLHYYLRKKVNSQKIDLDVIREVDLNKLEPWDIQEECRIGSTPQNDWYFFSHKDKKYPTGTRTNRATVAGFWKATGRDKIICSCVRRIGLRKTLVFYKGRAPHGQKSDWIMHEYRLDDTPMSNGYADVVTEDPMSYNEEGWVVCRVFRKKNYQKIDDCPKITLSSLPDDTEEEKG

For the next test, the target named is T10, GST-VND3 NAC domain (UniProt Q9FH59).
T10 sequence: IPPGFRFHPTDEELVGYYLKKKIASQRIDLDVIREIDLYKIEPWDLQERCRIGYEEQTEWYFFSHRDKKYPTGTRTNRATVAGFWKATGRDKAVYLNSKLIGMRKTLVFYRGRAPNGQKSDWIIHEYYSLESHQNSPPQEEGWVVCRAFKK

For another test, the target named is T11, GST-VND7 NAC domain (UniProt Q9C8W9).
T11 sequence: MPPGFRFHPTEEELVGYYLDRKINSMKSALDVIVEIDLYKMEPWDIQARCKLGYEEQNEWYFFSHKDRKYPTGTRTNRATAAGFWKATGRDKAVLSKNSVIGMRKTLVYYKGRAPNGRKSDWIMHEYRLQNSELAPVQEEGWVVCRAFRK

Test [2] addresses T12, GST-VOZ2 (Arabidopsis thaliana) (UniProt Q9SLB9).
T12 sequence: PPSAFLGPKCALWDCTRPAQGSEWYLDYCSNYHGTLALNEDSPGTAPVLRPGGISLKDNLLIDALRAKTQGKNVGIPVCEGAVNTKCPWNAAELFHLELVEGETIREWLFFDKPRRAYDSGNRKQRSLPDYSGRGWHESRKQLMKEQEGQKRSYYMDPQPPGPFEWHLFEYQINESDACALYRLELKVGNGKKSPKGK

Another test addresses GST-WRKY1(266-371) (UniProt Q9SI37).

Chain of GST-WRKY1(266-371) (Q9SI37 266-371, chain 1 of 2): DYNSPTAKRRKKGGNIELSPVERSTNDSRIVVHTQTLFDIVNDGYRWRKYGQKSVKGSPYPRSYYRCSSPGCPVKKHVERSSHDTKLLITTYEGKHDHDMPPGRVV

For GACCGTCA, the binding signal in the test with GST-ANAC092(1-176) was -0.0207 E-score; in the test with GST-NTL6(1-168), -0.0953 E-score; with GST-ANAC019 NAC domain it was 0.00441 E-score; with GST-ANAC055(1-171), -0.115 E-score; with GST-ATAF1 NAC domain it was -0.161 E-score; in test [1] it was -0.135 E-score. The binding signal with GST-NAP(1-166) is 0.0503 E-score; with GST-NST2(1-184), -0.0906 E-score; in the test with GST-NTL8 NAC domain, -0.0278 E-score; in the test with GST-SND1(1-203) it was -0.103 E-score; in the test with GST-VND3 NAC domain, -0.0567 E-score; with GST-VND7 NAC domain, 0.0207 E-score. In addition, the binding signal in [2] is -0.0505 E-score; with GST-WRKY1(266-371), 0.407 E-score.

With GGTCTGAC, the binding signal is -0.152 E-score with GST-ANAC092(1-176); -0.244 E-score with GST-NTL6(1-168); -0.043 E-score in the test with GST-ANAC019 NAC domain; -0.195 E-score in the test with GST-ANAC055(1-171); -0.15 E-score in the test with GST-ATAF1 NAC domain; -0.146 E-score in [1]. Moreover, the binding signal was -0.171 E-score with GST-NAP(1-166); -0.186 E-score with GST-NST2(1-184); -0.155 E-score with GST-NTL8 NAC domain; -0.15 E-score with GST-SND1(1-203); -0.0102 E-score with GST-VND3 NAC domain; -0.0685 E-score with GST-VND7 NAC domain. The binding signal was -0.0264 E-score in test [2] and 0.441 E-score with GST-WRKY1(266-371).

Consider GACTTTGA, for which the binding signal with GST-ANAC092(1-176) is -0.151 E-score; with GST-NTL6(1-168) it was -0.0403 E-score; with GST-ANAC019 NAC domain it was -0.0478 E-score; with GST-ANAC055(1-171) it was 0.0285 E-score; with GST-ATAF1 NAC domain it was 0.0117 E-score; in [1], -0.0469 E-score. The binding signal with GST-NAP(1-166) was -0.132 E-score; in the test with GST-NST2(1-184), -0.00758 E-score; with GST-NTL8 NAC domain, -0.0968 E-score; in the test with GST-SND1(1-203), -0.0442 E-score; in the test with GST-VND3 NAC domain, -0.0258 E-score; in the test with GST-VND7 NAC domain it was -0.0241 E-score. The results for the binding signal (in test [2]; in the test with GST-WRKY1(266-371)) were 0.114 E-score and 0.432 E-score, respectively.

Take CAGTCAGC: the binding signal with GST-ANAC092(1-176) was 0.0122 E-score; with GST-NTL6(1-168) it was -0.174 E-score; with GST-ANAC019 NAC domain it was -0.0407 E-score; with GST-ANAC055(1-171), -0.111 E-score; with GST-ATAF1 NAC domain, -0.095 E-score; in [1], -0.117 E-score. In addition, the binding signal with GST-NAP(1-166) is -0.112 E-score; in the test with GST-NST2(1-184), -0.0963 E-score; in the test with GST-NTL8 NAC domain it was -0.115 E-score; with GST-SND1(1-203), -0.101 E-score; with GST-VND3 NAC domain it was -0.148 E-score; in the test with GST-VND7 NAC domain, -0.129 E-score. The figures for the binding signal (in test [2]; with GST-WRKY1(266-371)) were -0.0599 E-score and 0.406 E-score, respectively.

For CCGGGTCA, the binding signal with GST-ANAC092(1-176) is -0.136 E-score; in the test with GST-NTL6(1-168), -0.311 E-score; with GST-ANAC019 NAC domain it was -0.137 E-score; in the test with GST-ANAC055(1-171) it was -0.339 E-score; in the test with GST-ATAF1 NAC domain it was -0.24 E-score; in test [1], -0.242 E-score. Also, the binding signal is -0.158 E-score with GST-NAP(1-166); -0.224 E-score in the test with GST-NST2(1-184); -0.0494 E-score with GST-NTL8 NAC domain; -0.148 E-score in the test with GST-SND1(1-203); -0.297 E-score in the test with GST-VND3 NAC domain; -0.143 E-score in the test with GST-VND7 NAC domain. Moreover, the binding signal in test [2] is -0.075 E-score; with GST-WRKY1(266-371), 0.443 E-score.
